Whole data set: some 33,000 sequences, median “E-score (-0.5 to 0.5)” near -0.021, cut for the highest 2% near 0.32. The list shows a part of the results.
target: T1, Zap1 (UniProt P47043); test: PBM E-score (8-mer binding enrichment) (E-score (-0.5 to 0.5)); higher = stronger / more preferred TF binding; most listed sequences are background and not binding sites; conditions: protein concentration: 200 nM; construct: GST-full length
T1 sequence: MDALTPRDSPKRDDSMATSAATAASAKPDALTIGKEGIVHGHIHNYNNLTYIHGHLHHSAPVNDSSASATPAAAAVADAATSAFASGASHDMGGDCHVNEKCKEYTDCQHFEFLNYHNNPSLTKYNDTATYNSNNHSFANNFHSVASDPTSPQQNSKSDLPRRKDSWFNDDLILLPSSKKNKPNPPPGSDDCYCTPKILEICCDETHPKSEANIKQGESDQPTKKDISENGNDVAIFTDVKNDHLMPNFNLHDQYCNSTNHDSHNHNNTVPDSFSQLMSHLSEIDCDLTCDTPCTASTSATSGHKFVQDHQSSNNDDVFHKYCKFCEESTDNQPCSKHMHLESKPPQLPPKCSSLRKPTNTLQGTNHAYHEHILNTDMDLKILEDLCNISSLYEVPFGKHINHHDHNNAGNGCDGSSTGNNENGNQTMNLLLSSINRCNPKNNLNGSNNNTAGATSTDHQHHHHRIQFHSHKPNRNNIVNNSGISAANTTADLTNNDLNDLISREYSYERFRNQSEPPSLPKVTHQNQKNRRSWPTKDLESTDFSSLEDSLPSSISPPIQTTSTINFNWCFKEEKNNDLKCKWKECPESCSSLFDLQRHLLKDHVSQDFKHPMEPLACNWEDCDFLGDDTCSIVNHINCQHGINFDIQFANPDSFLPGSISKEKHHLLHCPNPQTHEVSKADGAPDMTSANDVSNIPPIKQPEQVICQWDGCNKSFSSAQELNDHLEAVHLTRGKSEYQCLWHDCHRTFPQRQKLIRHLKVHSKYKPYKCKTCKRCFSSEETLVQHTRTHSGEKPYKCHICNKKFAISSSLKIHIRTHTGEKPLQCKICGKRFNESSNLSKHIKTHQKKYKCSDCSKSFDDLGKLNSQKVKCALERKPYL
Method in brief: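 The E-score, a modified Wilcoxon-Mann-Whitney statistic, was computed by the Universal PBM Analysis Suite for every ungapped eight-base word pooled with its reverse complement. Scans behind it were normalised with masliner after bound GST-tagged yeast transcription factors were detected with fluorescent anti-GST. The proteins, at about 100-200 nM, had been applied to universal all-10-mer Agilent arrays made double-stranded by primer extension.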

First: GGCGCGAC
Second: AGAAAGTA
The “PBM E-score” value of the first is higher: 0.205 for the first, 0.0344 for the second.

First: AAATGCCA
Second: CCGTGCAC
The “PBM E-score” value of the first is higher: -0.122 for the first, -0.153 for the second.

Going from AAGCGCAG to ACGTGTAA, the “PBM E-score” value rises from -0.198 to -0.0731.

Compared with CAAGGACC, CATTACCA is higher in “PBM E-score” value: 0.14 for the first, 0.175 for the second.

Compared with AGGCGGGG, ATCCTCCC is lower in “PBM E-score” value: -0.0391 for the first, -0.257 for the second.

Compared with TCTCTCCA, TCCCAGAA is higher in “PBM E-score” value: -0.192 for the first, -0.00682 for the second.

First: ACACTGTA
Second: CCTTACTA
The “PBM E-score” value of the first is lower: 0.0229 for the first, 0.118 for the second.

Compared with ATATTCGA, ATTATTTA is higher in “PBM E-score” value: -0.0965 for the first, 0.234 for the second.

First: AGCGTACC
Second: GTATGCGA
The “PBM E-score” value of the first is lower: -0.139 for the first, 0.11 for the second.

Going from TCGCCTCA to CCCGAATC, the “PBM E-score” value rises from -0.171 to -0.109.

First: GATGTTAA
Second: CTCCGTTA
The “PBM E-score” value of the first is higher: 0.0418 for the first, -0.0919 for the second.

Compared with AATCAATC, ACAGATAA is lower in “PBM E-score” value: 0.12 for the first, 0.0935 for the second.

Going from CGTGGAAC to ATTGTGGA, the “PBM E-score” value rises from -0.167 to -0.0425.

Compared with ACGTGAAC, CAGATGCC is lower in “PBM E-score” value: -0.0284 for the first, -0.27 for the second.

Compared with CCATTCAG, CGCGGGCC is lower in “PBM E-score” value: 0.0149 for the first, -0.0117 for the second.

Compared with GACGGGGA, ATGTAGTC is higher in “PBM E-score” value: -0.224 for the first, -0.18 for the second.

Compared with CGGAGTAC, GGTAACCA is higher in “PBM E-score” value: -0.03 for the first, 0.461 for the second.

Going from CACTACAG to TGATCCCA, the “PBM E-score” value falls from 0.00506 to 0.0037.

First: GCTTTGAA
Second: AAAAGCCA
The “PBM E-score” value of the first is higher: 0.0384 for the first, -0.00611 for the second.

First: TAGTACAA
Second: CCCGCAGG
The “PBM E-score” value of the first is lower: 0.0452 for the first, 0.185 for the second.

Going from CCCGTGAG to CACTTCTA, the “PBM E-score” value falls from 0.194 to -0.108.

Going from AAGAACGA to CTGATCAC, the “PBM E-score” value falls from 0.193 to -0.013.

First: AAAGGCTG
Second: CATCGGGG
The “PBM E-score” value of the first is higher: -0.0396 for the first, -0.147 for the second.

Going from ACGTCAGG to CGCACTTA, the “PBM E-score” value rises from -0.204 to -0.0155.

First: TCGGTACA
Second: AGGTCCTA
The “PBM E-score” value of the first is lower: -0.0214 for the first, 0.0953 for the second.

Compared with GCTTGGTA, CATGGTAC is higher in “PBM E-score” value: 0.0544 for the first, 0.22 for the second.

First: GGATGGGA
Second: GTGCTGGA
The “PBM E-score” value of the first is higher: -0.0992 for the first, -0.169 for the second.

First: GTAATAAC
Second: GAGGTTTA
The “PBM E-score” value of the first is higher: 0.234 for the first, 0.11 for the second.

Compared with CAGGCACA, CTAGATGA is higher in “PBM E-score” value: -0.218 for the first, 0.0597 for the second.

First: AGAGGTGC
Second: ACGCTAAC
The “PBM E-score” value of the first is lower: -0.211 for the first, 0.0137 for the second.

First: GCGACCGC
Second: ATGCCGGC
The “PBM E-score” value of the first is higher: -0.00213 for the first, -0.32 for the second.

Compared with GCAAGATA, CCTGTGGA is lower in “PBM E-score” value: 0.0727 for the first, -0.196 for the second.

Compared with GTAGCAGA, CCCCCAAC is lower in “PBM E-score” value: 0.102 for the first, -0.244 for the second.

Compared with ACCCCGCG, TAGAACCA is lower in “PBM E-score” value: 0.246 for the first, 0.0918 for the second.

Compared with AAGGAAGC, GACGCCAC is higher in “PBM E-score” value: -0.252 for the first, -0.0954 for the second.

Going from ATCGGACC to AAGCGTTA, the “PBM E-score” value falls from -0.021 to -0.0244.

Going from ATTTAGAG to GCCCTTCC, the “PBM E-score” value falls from 0.126 to -0.105.

First: CAATTTGC
Second: ACCTCAGT
The “PBM E-score” value of the first is lower: -0.169 for the first, 0.21 for the second.

Compared with AGTGAGTC, CCTCAAAG is higher in “PBM E-score” value: -0.0325 for the first, 0.0989 for the second.

Compared with AGGGTCGA, AGCAGTGA is lower in “PBM E-score” value: 0.225 for the first, 0.0404 for the second.

Going from AACTGTCT to CCGTTTAG, the “PBM E-score” value rises from -0.105 to 0.0155.

Compared with ATGGTGGA, GCTGGTCA is higher in “PBM E-score” value: -0.244 for the first, 0.0223 for the second.

Going from ATATGCAG to CTTCACAA, the “PBM E-score” value rises from -0.25 to -0.0479.

Compared with ACGGTGAC, ATCGACAC is higher in “PBM E-score” value: -0.0408 for the first, 0.107 for the second.

First: CCACGCTC
Second: ACAATGAG
The “PBM E-score” value of the first is lower: -0.231 for the first, -0.0379 for the second.

Compared with GCGAAGTA, ACCGGGGC is higher in “PBM E-score” value: -0.128 for the first, -0.0198 for the second.

Going from CACGGTGG to AAGCGGAC, the “PBM E-score” value falls from 0.0955 to -0.0202.

Compared with GACCGCGC, AACCGCTT is higher in “PBM E-score” value: 0.0705 for the first, 0.31 for the second.

Going from ATTCGCTG to ATCGGGAG, the “PBM E-score” value falls from -0.149 to -0.201.

First: CGAGAAAC
Second: ACGTTTGC
The “PBM E-score” value of the first is higher: 0.0891 for the first, -0.261 for the second.

Compared with ACAGACAT, ACCAATCA is higher in “PBM E-score” value: -0.082 for the first, 0.0786 for the second.

First: GTCTTTCA
Second: AGGGCCCG
The “PBM E-score” value of the first is higher: -0.0688 for the first, -0.23 for the second.

Going from TACCATGA to CTGATAAG, the “PBM E-score” value falls from 0.12 to 0.056.

Going from ACACTTTA to CCGTCATA, the “PBM E-score” value rises from 0.00496 to 0.00745.

First: CAATTAGC
Second: ACGTCGAT
The “PBM E-score” value of the first is lower: -0.0997 for the first, 0.00438 for the second.

Compared with ACTAACTC, AGACGGGA is lower in “PBM E-score” value: -0.137 for the first, -0.349 for the second.

First: ATTCTCCA
Second: ACTTGTCT
The “PBM E-score” value of the first is higher: -0.00761 for the first, -0.059 for the second.

First: CCACGCCC
Second: CCCCCACA
The “PBM E-score” value of the first is higher: -0.149 for the first, -0.257 for the second.

Going from CTGCCGAC to AAATCAGA, the “PBM E-score” value rises from -0.0995 to 0.0562.

Compared with ACATAAAA, CAACCTGG is higher in “PBM E-score” value: 0.107 for the first, 0.111 for the second.

Compared with CCCCGGAA, AACAGTGG is higher in “PBM E-score” value: -0.0761 for the first, 0.0381 for the second.

First: ATCTTTCG
Second: CCTACCCC
The “PBM E-score” value of the first is higher: -0.0476 for the first, -0.0627 for the second.

Compared with GATAGTAC, TCACGCAA is lower in “PBM E-score” value: 0.189 for the first, 0.0552 for the second.

Going from CGTCACTC to AGGGGCTA, the “PBM E-score” value rises from -0.0793 to -0.0271.

First: CGTGCCAA
Second: AGTGGTGG
The “PBM E-score” value of the first is lower: -0.164 for the first, 0.117 for the second.

First: CCCTGTTA
Second: GGCGGCAC
The “PBM E-score” value of the first is higher: 0.277 for the first, -0.122 for the second.

Compared with GAGCTGTA, CATGTGCG is higher in “PBM E-score” value: -0.244 for the first, -0.0899 for the second.

Going from AAATAAAT to TATAGATA, the “PBM E-score” value falls from 0.256 to 0.0707.

First: CTGGGTCA
Second: ACCTATAC
The “PBM E-score” value of the first is lower: 0.143 for the first, 0.249 for the second.

Going from ATTCAACG to ATTGTAAA, the “PBM E-score” value rises from 0.0478 to 0.167.

Going from ATGGACTC to GGGGCAAC, the “PBM E-score” value rises from -0.0765 to -0.0672.

Compared with GGCCTGCA, ATACTTAG is higher in “PBM E-score” value: -0.285 for the first, 0.107 for the second.

First: AGTTTTCG
Second: CCCTCATA
The “PBM E-score” value of the first is higher: 0.148 for the first, 0.0732 for the second.

Going from CTAAACGC to GCATGGGC, the “PBM E-score” value falls from 0.0433 to -0.0783.

Going from ATTTCTGA to TACCACCA, the “PBM E-score” value rises from 0.0932 to 0.235.

First: AAGCCCCC
Second: AGACTAAC
The “PBM E-score” value of the first is lower: -0.357 for the first, 0.0944 for the second.

Going from ACCGTAAC to AACCAGAT, the “PBM E-score” value falls from 0.331 to 0.142.

Compared with CGGGTCTC, CGGACCAA is higher in “PBM E-score” value: 0.0449 for the first, 0.146 for the second.

Going from GGGAGTTA to CCCTAAAC, the “PBM E-score” value falls from 0.0753 to 0.00325.

First: CGCGAGCA
Second: ATAGAATG
The “PBM E-score” value of the first is lower: -0.0177 for the first, 0.0462 for the second.

First: TGCTCGAA
Second: GTTTCTGA
The “PBM E-score” value of the first is lower: -0.0246 for the first, 0.262 for the second.

Going from AGTCTACA to AGGGGGCG, the “PBM E-score” value falls from -0.18 to -0.279.

Compared with CAACTGTG, CATTAGGC is lower in “PBM E-score” value: 0.036 for the first, -0.137 for the second.

Going from ATACTCAA to CATACGAC, the “PBM E-score” value falls from 0.179 to -0.049.

Compared with CTCCAACA, AGTTCAAC is higher in “PBM E-score” value: -0.121 for the first, 0.00606 for the second.

Compared with CATGCCGA, AGCGCTAA is higher in “PBM E-score” value: -0.158 for the first, -0.0129 for the second.

— the supplement of paper PMC3334620
